In PubChem BioAssay AID624418 (National Center for Advancing Translational Sciences (NCATS), 2012):
Hit rate of the full screen: of about 410,000 compounds, about 530 (0.13%) were called active. This list was built around the results that the source calls inconclusive (neither active nor inactive); the mix of calls is not that of the screen. Calls come from the whole dose curve; as a rule, active = well fitted inhibition curve with a large enough effect; inconclusive = small, poorly fitted or top-dose-only effect, or another doubt; inactive = no such curve, though single readings can be large or run the other way. Potencies beside an inconclusive call are fits to weak or partial responses and may not hold up.

assay: qHTS of GLP-1 Receptor Inverse Agonists: Cytotox Screen; details: HEK293 cAMP-luciferase reporter cells, luminescence, 24 h; activity change, negative = inhibition: at 38.3 µM (top of the series) unless noted
Procedure, shortened: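 MLSMR compounds, 24 hr on cells at 37 deg C/5% CO2; luminescence after luciferase reagent (12 min RT). Inhibition counted as the undesired cytotoxic outcome.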
% is set by controls: 0 for no effect and ±100 for the full control effect; potency is the fitted concentration of half-maximal effect.

Structure (SMILES) | Potency | activity change, negative = inhibition
Oc1c(N=Nc2nn[nH]n2)ccc2ccccc12 | inconclusive: 11.2 µM [inhibitor, partial curve, poor fit] | –
O=C(CCCC(=O)N(CC(=O)NC1CCCCC1)Cc1ccco1)Nc1ccccn1 | – | inactive: -5.39%
S=C1SCN(Cc2ccccc2)CN1Cc1ccccc1 | inconclusive: 20 µM [inhibitor, partial curve, poor fit] | –
COc1ccccc1CNc1nc(NCC2CC2)nc2ccsc12 | inconclusive: 20 µM [inhibitor, partial curve, poor fit] | –
O=c1[nH]c2cc(NCCO)c([N+](=O)[O-])cc2[nH]1 | inconclusive: 7.94 µM [inhibitor, partial curve, poor fit] | –
CC(NC(=S)Nc1ccc(OC(F)F)cc1)c1ccc(F)cc1 (centres undefined) | inconclusive: 31.6 µM [inhibitor, partial curve, poor fit] | –
CCOc1ccc2c(c1)OC(c1ccc(OC)cc1)(C(F)(F)F)NC2=O (centres undefined) | inconclusive: 0.891 µM [inhibitor, full curve, poor fit] | –
COc1cccc(NC(=O)NCc2ccccc2F)c1 | – | inactive: 0.118%
COC(=O)[C@H](C)NC(=O)Nc1cccc(C(F)(F)F)c1 | – | inactive: -2.04%
Cn1c(NCCO)nc2c1c(=O)n(Cc1cccc(F)c1)c(=O)n2C | – | inactive: 4.35%
O=C(CCN1C(=O)C2C3C=CC(C4CC34)C2C1=O)Oc1cccc2cccnc12 (centres undefined) | inconclusive: 2.51 µM [inhibitor, full curve, poor fit] | –
CC(C)C[C@H]1CNC(=S)N1C[C@H]1CCCN1C[C@H](CC(C)C)N1C[C@H](Cc2ccc(O)cc2)N(CC2CCCCC2)C1=S | inconclusive: 15.8 µM [inhibitor, single point] | –
COc1ccc2c(c1)sc1ncc(C(=O)NCc3ccc(OC(C)C)cc3)c(=O)n12 | – | inactive: 2.24%
CC(C)c1ccc(NC(=O)Nc2nc(C(N)C3CCCCC3)cs2)cc1 (centres undefined) | inconclusive: 28.2 µM [inhibitor, single point] | –
Cc1c(Cl)cccc1Nc1nc(NCCO)c2ccccc2n1 | inconclusive: 22.4 µM [inhibitor, single point] | –
CCN(CC(=O)Nc1cccc(F)c1)Cc1nc2ccccc2c(=O)[nH]1 | inconclusive: 22.4 µM [inhibitor, single point] | –
COC(=O)c1ccc(NC(=S)NC2CCc3ccccc32)cc1 (centres undefined) | inconclusive: 28.2 µM [inhibitor, single point] | –
COc1ccc(OCCN2CCC(C(=O)NC(c3ccccc3)c3ccc4ccccc4n3)CC2)cc1 (centres undefined) | inconclusive: 28.2 µM [inhibitor, single point] | –
Cc1cc(NCCN2CCOCC2)c2ccc3ccccc3c2n1 | inconclusive: 28.2 µM [inhibitor, partial curve, poor fit] | –
Fc1ccc(NC(=S)NNc2ncc(C(F)(F)F)cc2Cl)c(F)c1 | inconclusive: 10 µM [inhibitor, single point] | –
Cc1ccc(S(=O)(=O)N2CCN(C(=O)CSC(=S)N3CCCC3)CC2)c(C)c1 | inconclusive: 17.8 µM [inhibitor, partial curve, poor fit] | –
COc1cccc(C(=O)NC(=S)Nc2ccccc2N2CCOCC2)c1 | inconclusive: 11.2 µM [inhibitor, single point] | –
O=C(CCN1C(=O)/C(=C/c2cccs2)SC1=S)Nc1cccc(O)c1 | inconclusive: 28.2 µM [inhibitor, single point] | –

Structure (SMILES) | Potency | activity change, negative = inhibition
O=C(NCCC1CCCCN1S(=O)(=O)c1ccccc1)C(=O)NCc1ccncc1 (centres undefined) | – | inactive: -14.2%
CCOc1ccccc1OCCOCCN1CCN(Cc2ccccc2)CC1 | – | inactive: 0.648%
CC(=O)Nc1ccc(-c2ccnc3c2CC(C(=O)Nc2cccc(C(F)(F)F)c2)O3)cc1 (centres undefined) | inconclusive: 11.2 µM [inhibitor, partial curve] | –
O=C(O)C1=C[C@H](c2ccc(C(F)(F)F)cc2)C[C@H](OCc2ccc(CO)cc2)O1 | inconclusive: 3.16 µM [inhibitor, full curve] | –
O=C(O)CNCC1COc2ccccc2O1 (centres undefined) | – | inactive: 0.656%
O=C(NC(=S)Nc1ccccc1N1CCCCC1)c1cccs1 | inconclusive: 10 µM [inhibitor, partial curve, poor fit] | –
CN(C)CCCNS(=O)(=O)c1ccc(-n2nnc3ccccc32)c([N+](=O)[O-])c1 | inconclusive: 12.6 µM [inhibitor, single point] | –
O=C(Nc1cccc(Cl)c1)c1cccc(Oc2ccc([N+](=O)[O-])cc2Cl)c1 | inconclusive: 10 µM [inhibitor, partial curve] | –
COc1ccc(-c2nc(CSc3nncn4c3cc3occc34)c(C)o2)cc1 | inconclusive: 14.1 µM [inhibitor, single point] | –
CC1=NN(C(N)=S)C(=O)C1N=Nc1cccc(C)c1 (centres undefined) | inconclusive: 1 µM [inhibitor, full curve, poor fit] | –
N=c1c2c(-c3ccccc3)c(-c3ccccc3)n(Cc3ccco3)c2ncn1CCCn1ccnc1 | inconclusive: 8.91 µM [inhibitor, partial curve] | –
CCC/C=N/Nc1nnc(Cc2ccccc2)c(=O)[nH]1 | inconclusive: 28.2 µM [inhibitor, single point] | –
CC(=O)c1ccc2noc(-c3cccc(F)c3)c2c1 | – | inactive: 3.64%
NC(CCc1ccccc1)c1csc(Nc2ccccn2)n1 (centres undefined) | inconclusive: 8.91 µM [inhibitor, partial curve, poor fit] | –
CCCCCOc1c(Cl)cc(C(=O)N(Cc2ccc(C)o2)C2CCS(=O)(=O)C2)cc1Cl (centres undefined) | inconclusive: 15.8 µM [inhibitor, single point] | –
O=C(Cn1c(=S)[nH]c2ccccc21)c1ccccc1 | – | inactive: 48%
COC(=O)c1cc2oc3ccccc3c2n1Cc1nc(-c2ccc(Cl)cc2)oc1C | – | inactive: 19.5%
O=C(O)CC1(CC(=O)N2CCOCC2)CCCC1 | inconclusive: 0.501 µM [inhibitor, full curve, poor fit] | –
O=C(O)CCn1cc(/C=C2\SC(=S)NC2=O)c(-c2ccccc2)n1 | inconclusive: 28.2 µM [inhibitor, single point] | –
COc1ccc(CCNC(=S)NC(=O)c2c(-c3ccccc3Cl)noc2C)cc1OC | – | inactive: 6.1%
COC(=O)C1=C(O)/C(=C/c2ccc(OCC(=O)Nc3ccccc3)cc2)N=C1C | inconclusive: 28.2 µM [inhibitor, single point] | –
CCc1ccc(CNC(=O)c2nn(-c3ccc(C)cc3)c(=O)c3c2c2ccccc2n3C)cc1 | – | inactive: 1.65%
O=C(Nc1nc2ccccc2[nH]1)c1cc(F)cc(F)c1 | – | inactive: -11.7%

Structure (SMILES) | Potency | activity change, negative = inhibition
CCCn1c(NC(=O)C2COc3ccccc3O2)nc2ccccc21 (centres undefined) | – | inactive: 2.46%
Cc1cccc(-n2c(SCC(=O)NCc3ccco3)nc3ccccc3c2=O)c1 | inconclusive: 28.2 µM [inhibitor, single point] | –
Cn1cnc([N+](=O)[O-])c1Oc1cccc2ccccc12 | inconclusive: 11.2 µM [inhibitor, single point] | –
N#Cc1nc(-c2ccc(OCc3ccccc3)cc2)oc1NCCCN1CCOCC1 | inconclusive: 28.2 µM [inhibitor, single point] | –
COc1cccc(OCCNS(=O)(=O)c2ccccc2[N+](=O)[O-])c1 | inconclusive: 2.24 µM [inhibitor, full curve, poor fit] | –
O=C(NC(=S)Nc1ccccn1)c1ccco1 | inconclusive: 31.6 µM [inhibitor, single point] | –
CC(C)NC(=O)Cn1nnc(-c2ccccc2)c1COc1ccc2ccccc2c1 | – | inactive: -0.313%
CCOC(=O)c1c(C)[nH]c(C)c1S(=O)(=O)N1CCC(C(=O)Nc2cc(Cl)ccc2OC)CC1 | – | inactive: 0.205%
CCCc1cc(-c2[nH]ncc2-c2ccc(C(=O)OCC)o2)c(O)cc1O | inconclusive: 15.8 µM [inhibitor, partial curve, poor fit] | –
CC(C)CNC(=O)c1coc(=O)c(Br)c1 | inconclusive: 20 µM [inhibitor, single point] | –
C#CC[N+](C)(C)CCCCCCCCCCCC | – | inactive: 14.6%
CC1Cc2ccccc2N1C(=S)NC(=O)c1cccc(Br)c1 (centres undefined) | inconclusive: 20 µM [inhibitor, single point] | –
CC1CCc2nc3sc4c(c3c(N)c2C1)CCCC4 (centres undefined) | inconclusive: 3.55 µM [inhibitor, single point] | –
CC(=O)c1c(C)[nH]c(C(=O)Nc2ccc(C)c(S(=O)(=O)Nc3ccc(C)cc3C)c2)c1C | inconclusive: 11.2 µM [inhibitor, single point] | –
COC(=O)c1ccc(CN(Cc2ccc(C(=O)OC)o2)C(C)(C)C)o1 | – | inactive: 12%
COc1ccc(Cn2c(C(=O)O)c(CNCc3ccccc3F)c3ccc(OC)cc32)cc1 | inconclusive: 14.1 µM [inhibitor, single point] | –
O=C(Nc1nnc(S(=O)(=O)N2CCCc3ccccc32)s1)c1cccc(Cl)c1 | – | inactive: -18.9%
CCN(CC)CCOc1ccc2c(c1)C(=NO)c1cc(OCCN(CC)CC)ccc1-2 | inconclusive: 7.08 µM [inhibitor, partial curve, poor fit] | –
O=c1cc(CNc2cc(C(F)(F)F)cc(C(F)(F)F)c2)nc2sccn12 | inconclusive: 28.2 µM [inhibitor, single point] | –
COc1cc(C)c2sc3ccccc3c(=O)c2c1NCCN(C)C | inconclusive: 10 µM [inhibitor, partial curve, poor fit] | –
COc1cc(/C=C2/SC(=S)N(CC(=O)Nc3cccnc3)C2=O)cc(OC)c1OC | – | inactive: -10.9%
CCC(C)c1ccc(S(=O)(=O)Nc2cccnc2)cc1 (centres undefined) | – | inactive: 25.7%
COc1ccccc1-n1c(SCC(=O)c2ccc(O)cc2O)nc2cc([N+](=O)[O-])ccc21 | inconclusive: 15.8 µM [inhibitor, single point] | –
